Test results: PubChem BioAssay (NCI)
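The compound was tested at five concentrations on cells cultured in 96-well plates, with a 48-hour exposure period. Here, GI50 denotes the concentration required for 50% inhibition of growth. TGI denotes the concentration required for complete inhibition of growth.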

System: NCI-H322M lung
Test: NCI anticancer screen, dose series, 48 h

Structure (SMILES)	GI50	TGI
CC(=O)Nc1cccc(-c2nc3cc(-c4ccc(O)cc4)ccc3n2C)c1	19 µM	61.9 µM
O=C(/C=C/c1cccc(Br)c1)c1nc2ccccc2n1Cc1ccc(Br)cc1	4.1 µM	17.4 µM
C[C@H]1[C@@H](CC(=O)N[C@@H](Cc2coc3ccccc23)B(O)O)O[C@@H]2OC3(C)CC[C@H]4[C@H](C)CC[C@@H]1[C@@]24OO3	10.3 µM	34.3 µM
Cc1ccc(-c2ccc(SCC(=O)Nc3ccc(Cl)c(C(F)(F)F)c3)nn2)cc1	30.4 µM	> 100 µM
